Source: the supplement of paper PMC5499739
In all, about 16,000 sequences were measured (“Z-score”: median about -0.37, highest 2% from about 3.2 on). The list shows a part of the results.

test system: RBM10 RRM1-ZnF (GST-tagged construct); experiment: RNAcompete 7-mer binding Z-score; higher = stronger binding preference
Description: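 RNAcompete: 20 pmol GST-tagged RBM10 RNA-binding constructs were incubated with a designed RNA pool of about 241,000 sequences up to 41 nt (1.5 nmol) on glutathione beads for 30 min at 4 °C and washed. Bound RNAs were identified by microarray hybridisation. Each RNA 7-mer is scored by a one-sided Z-score of its enrichment, computed over probes that contain the 7-mer within longer pool sequences.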

Sequence | RNAcompete 7-mer binding Z-score
CUUCCGG | -0.529
CGAGUUC | -0.824
AGUAUCG | -0.0577
GGGCGUG | 2.66
GUUACCA | -0.279
CUGAACA | -0.704
CGAAGUU | -0.236
GAACUUA | -0.428
UGUCCCC | -0.399
CUAAGAG | -0.178
GCACUAU | -0.412
AAGGACA | 2.43
AUCUUGA | -0.779
UGCUACU | -0.516
UCGGCGC | 0.0723
GCCUUGC | -0.73
UGACACG | 0.0138
AUAGCGG | 0.92
GAUGAAG | 2.77
UUAAUAG | -0.396
AUUCCUA | -0.756
CUCUGCA | -0.782
UGGUCGA | 0.612
CGAGCUU | -0.655
GACGCUU | -0.935

Sequence | RNAcompete 7-mer binding Z-score
UCGGAAA | 0.368
GUAAUCU | -0.558
UGGACUG | 0.917
GAAAGAG | 1.42
UACGGCA | 0.186
AGCUCAU | -0.837
UUUCAUC | -0.779
AGCUUCU | -0.805
AAAGCUU | -0.399
AAUUAUG | -0.116
GGGUUCG | 1.62
AAGGCGC | 0.644
GUUAAGA | 0.283
CCACAGG | -0.0382
UGCUGGA | 0.582
GCUAAAU | -0.331
GUGCCCU | -0.568
UUUCGCG | -0.668
ACGCACG | -0.386
CUCAACC | -0.629
CUGAGAG | 0.111
AGCGUUC | -0.552
CGGCACG | 0.264
CUCCCGA | -0.665
AUAUCUC | -0.701

Sequence | RNAcompete 7-mer binding Z-score
CACUAAG | -0.266
CCACAAA | -0.623
AUGGAAG | 3.6
GCACAAU | -0.516
UUGUUCA | -0.655
GAAGCGG | 2.47
AUCAAAC | -0.685
CGACCAA | -0.678
CUCGACC | -0.617
AGCCGCU | -0.789
CUCUCCU | -0.672
GAUUGUC | -0.425
GAGUUCA | -0.34
GGCCGAU | -0.249
AACUCUG | -0.776
GCGACGA | 0.0268
AUAACAA | -0.418
UAUUGUG | -0.0674
GGCCCGA | -0.5
CGUUUUU | -0.854
AUACUAA | -0.454
CAGGUGU | 1.24
GGGAGCC | 0.917
AACUGUU | -0.636
GGUGCGA | 1.7

Sequence | RNAcompete 7-mer binding Z-score
UGGCGAG | 1.17
AUAUCGC | -0.48
GCUAAAA | 0.000789
AUGUUGG | 1.5
ACGCGCA | -0.522
UAUAUGU | -0.337
CGCCGGC | -0.639
GCAAUCG | -0.275
AGAAACA | -0.236
GGGCUUG | 1.39
UGCUUAG | -0.347
CUUUCAC | -0.824
UUACUCU | -0.707
ACUAAGG | 0.787
CCAUACU | -0.815
UUUUCGU | -0.727
UGCUGUG | -0.119
ACGUUCG | -0.646
AGUGAUG | 0.833
AUACAUU | -0.617
UCCAUGA | -0.652
GGUCGUU | 0.456
ACUGGUC | -0.334
UCCCUGA | -0.6
CGACUUU | -0.811

Sequence | RNAcompete 7-mer binding Z-score
UAUGCAU | -0.376
ACGUGAA | 0.134
GAUUCAC | -0.629
GACGUGA | 0.433
CUCCAUA | -0.821
GUGUCAG | 0.309
AUUUCGU | -0.844
UUUGUGU | -0.269
CCUGGGG | 0.914
GCGGGCA | 2.09
UAACACU | -0.574
GAGCGGA | 3.98
AUGUAGC | 0.095
GCAGAUU | -0.243
CCGUCUA | -0.776
CUGGGCC | -0.0285
CGUGUCG | -0.266
UUACUUA | -0.704
UCGGAGA | 0.647
CAGCGUC | -0.623
CCAUGCC | -0.707
AAGAGGA | 2.2
CUCAGCA | -0.613
CGCGAGC | -0.526
UCAGAGC | -0.519

Sequence | RNAcompete 7-mer binding Z-score
UCCGCCG | -0.617
AUAGUUG | 0.28
GAUGGUG | 3.27
ACACUAA | -0.539
UUUCUCC | -0.808
CCGUAUC | -0.909
AAGUCAU | -0.522
CAUACAA | -0.61
ACCGUCG | -0.526
CAUUUCC | -1.04
CUUCCCA | -0.831
ACAUGCU | -0.503
UCGGCUU | -0.678
UCCUGCA | -0.766
GAACGAA | -0.0447
CUAUAUG | -0.487
AAUACAA | -0.399
UGUAAGC | -0.119
CGAUGGA | 1.27
UUAAACC | -0.782
ACAGUCU | -0.785
AAUCAGG | 0.943
UAAACAU | -0.555
GCGUUAC | -0.0869
UGCUGGG | 1.79

Sequence | RNAcompete 7-mer binding Z-score
GGCAUAU | 0.144
CUAUUGG | 0.0268
ACCUCUG | -0.792
AAUAAAA | -0.405
CGCUCGA | -0.565
CGGUCUA | -0.594
CUGGUCC | -0.467
CAACAUC | -0.5
UCGCACC | -0.665
GGGUCAA | 1.28
CGCCCCG | -0.11
UGGUUUA | 0.859
AGAGUCC | -0.617
GCACGGC | 0.095
UCUUCUA | -0.837
UGGGCCG | 1.11
UAAGGGG | 3.27
CACCGGG | 0.686
CGUUACA | -0.474
AGUGGUG | 2.37
UAAUGAA | -0.175
CUUGGGU | 1.38
CACUGGG | 1.41
ACCGGCA | -0.454
UUUCUCA | -0.834

Sequence | RNAcompete 7-mer binding Z-score
AAAAGUU | -0.269
UGAGAGC | 0.482
GACCAUU | -0.915
CCGCCUC | -0.717
UUUAACC | -0.733
GUCAUGC | -0.454
UAUUGGU | 0.852
AUAUAUG | 0.0658
UGCAUGA | -0.353
CACAGUC | -0.509
CACACUA | -0.493
ACGCGCG | -0.0317
CUCCAUC | -0.863
GGAUUGG | 3.79
AAAUAGA | 0.287
GUAUCGC | -0.162
GCUGAGC | 0.209
CAUCUUU | -0.909
GUACUGC | -0.23
AGGGAGA | 2.66
CCUAUGC | -0.691
AGGCCGA | -0.0999
AAAGGGA | 4.42
CGCACCU | -0.591
CGUCAGC | -0.529

Sequence | RNAcompete 7-mer binding Z-score
AUGCAAC | -0.214
UGUCACA | -0.655
GUAGCUC | -0.246
ACAGGCU | 0.287
CCCUUCA | -0.776
UGGCAGC | 0.397
GGAUACU | 1.06
AGCCGCA | -0.288
CAUGUGU | -0.0642
CGGCGCU | -0.311
ACACCUU | -0.763
ACCGGAC | -0.431
AAGCACC | -0.47
CGAAUGG | 1.29
AUAUAGU | -0.139
UAACGGU | 0.547
CUCGCAG | -0.11
UGUUAUA | -0.493
AGCUUCG | -0.655
GGGGUUG | 3.76
ACUCGUA | -0.607
AUCACAU | -0.457
CCAAUAG | -0.233
CUUAGGC | -0.48
GACUUGG | 0.628

Sequence | RNAcompete 7-mer binding Z-score
UAAGGAU | 1.42
AUGGCUC | -0.227
UAAAUCU | -0.772
GCCUAGC | -0.62
GGAGUGG | 4.84
AAGAGUC | -0.11
AGAUUCC | -0.72
AAUUGUC | -0.639
AAUCACC | -0.642
AAUCAGC | -0.464
UCGUGAC | -0.659
GACCCAA | -0.685
UGUAAUU | -0.36
CGCUUCA | -0.675
AUUACUA | -0.555
AAGGCGA | 1.36
GCUGAUU | -0.285
AAAUGGA | 3.63
ACCUGUU | -0.971
UAACAGA | 0.105
GCGUCUU | -0.61
GCUUUCA | -0.652
GAGUAGA | 1.37
AACGGUC | 0.0138
GUGGUGG | 3.9

Sequence | RNAcompete 7-mer binding Z-score
GGAGUAA | 1.2
AGCAUAA | -0.292
AUAAGUC | -0.383
UUUCGUA | -0.779
UGUCCUG | -0.565
UGCACUG | -0.0772
UCCUAGG | -0.292
AGGCUAA | -0.0187
AGUGAGC | 0.69
GCUCCUA | -0.678
AUUGCCA | -0.73
GACUAGU | -0.103
UACACCA | -0.552
CAAAAGC | -0.626
CUUCCGA | -0.847
GCCCUAG | -0.422
AGAUACG | 0.0593
GUUUGCA | -0.0804
GACUACC | -0.834
CCUGACA | -0.727
UAACAAA | -0.373
UACACUU | -0.62
CCUUGAU | -0.704
GGAGGGC | 3.13
UGAGCUG | 0.654

Sequence | RNAcompete 7-mer binding Z-score
UCGGUGG | 1.6
UUACCUU | -0.737
GAUGAAA | 1.09
CCGGUUA | -0.171
AUGCCAA | -0.733
ACCCCCC | -0.158
GAAAGCG | 0.855
CAGGGCG | 2.02
AAUUUAG | -0.318
UAUAAAG | -0.0544
GAGGUUA | 1.57
UCAUAGA | -0.623
AAAUCAA | -0.503
ACUAGGC | -0.392
AGACUGA | -0.448
UCUUGCU | -0.815
UCGACGG | 0.205
UUGUUAU | -0.6
GCGACGC | -0.171
GGGUCAG | 2.55
GGCCAGG | 1.12
GACUGCU | -0.795
UAGCUUU | -0.776
CCCGCUA | -0.724
GGAAGGU | 4.23

Sequence | RNAcompete 7-mer binding Z-score
GUGGUCU | 0.54
GCGACUC | -0.529
AGGUUCG | 0.371
CCAUUAG | -0.529
ACACGUA | -0.256
AUGUUUU | -0.613
CAAGUUU | -0.766
GUCCAAA | -0.457
CCAUAAA | -0.717
GGCACAG | 0.891
GAAUAAC | -0.275
UAAUUGA | -0.444
UCAAAGU | -0.545
CUGCUAG | -0.513
CACGGGC | 0.316
CAGCGUA | -0.279
AAGUACG | 0.0105
CGGUGAC | 0.183
CUGUCUA | -0.821
ACGCGAA | -0.412
UUAGAUG | 0.137
UUUUUGA | -0.409
AGGAAUG | 2.25
UAAAAUA | -0.431
UCGGUUU | -0.227

Sequence | RNAcompete 7-mer binding Z-score
GGCUCGC | -0.178
AUGCUAC | -0.578
UGAUCGC | -0.474
ACCGCGG | 0.677
AUUAAGA | -0.214
AGGGCGU | 1.19
AGCUGCA | -0.308
GACUAUA | -0.542
UAAGGAC | 0.972
UUAAGCA | -0.513
ACUUUAG | -0.665
AUGCCAC | -0.62
UCCAGAA | -0.633
GUAGGAU | 2.49
GAUUAGU | 0.465
UUAUCAC | -0.558
UGUACAU | -0.422
UUCCGGA | -0.428
GUUUAUU | -0.526
ACAAAGG | 1.64
UAACUCA | -0.552
GCUCAAA | -0.266
CCGAUUU | -0.974
CACAGGU | 0.625
GGGGCCG | 1.12

Sequence | RNAcompete 7-mer binding Z-score
ACCCUAU | -0.909
UGCUCAU | -0.639
CAGCUCC | -0.724
GACACGA | -0.223
GAUAUCG | -0.00571
CUAGCAC | -0.636
UGGUAAG | 2.11
GCGAUCA | -0.178
GUCGAUG | 0.225
UGCCCAG | -0.5
AGGAGGA | 2.25
AGCCGUA | -0.646
CGAGGAU | 1.35
CGAUGAC | -0.311
UAUGAAU | 0.00404
AUUCUAU | -0.73
CCUCGAG | -0.649
